# Measurements published in ChEMBL document CHEMBL4888484, “Replenishing the malaria drug discovery pipeline: Screening and hit evaluation of the MMV Hit Generation Library 1 (HGL1) against asexual blood stage Plasmodium falciparum ,using a nano luciferase reporter read-out” (2022).
# In all, about 150,000 compounds went through this assay and about 540 (0.36%) showed an effect of 50% or more. The list shows a part of the results.
# Test system: Plasmodium falciparum
# Assay: Primary screen in NF54 nanoGlo assay, in single point, at 2uM, 72h; a lower Z score goes with more inhibition
# Assay type: functional, Erythrocyte
# Conditions: timepoint 72 hour
Compound,% Inhibition [%],Z score
Cc1c(CN(C)C2CCN(c3nnc(-c4ccccc4)s3)CC2)cnn1C,3,-0.3
Cc1cc(CNC(=O)C2CCCC2)c(C)o1,-6,0.84
COCc1nc(Cn2ncc3ccccc3c2=O)no1,-3,0.43
O=C1CN(C(=O)C2CC23CCOc2ccccc23)c2ccncc2N1 (stereo not drawn),1,-0.12
CCC(NC(=O)NC(C)(CO)C1CC1)c1ccccc1OC (stereo not drawn),-5,0.41
COc1ccccc1Cn1ncc2[nH]c(-c3cccn3-c3nccs3)nc21,-13,1.8
c1cc(CN[C@H]2CC3CCC2CC3)n[nH]1,-7,0.84
C[C@@H](c1ccc(C(=O)NC2(C(N)=O)CCCC2)o1)N1CCCCC1,10,-1.34
COc1ccc([C@H]2C3CCCCC3(O)CCN2C/C=C/c2ccccc2)cc1 (stereo partly drawn),-4,0.68
CCc1cccnc1NC(=O)CC1(OC)CCC1,0,-0.02
Cc1cc(N2CCC(c3nncn3C(C)C)CC2)c(C#N)c(C)n1,-16,1.8
CC(C)N(C(=O)c1ccn(C)c(=O)c1)[C@H]1CCCc2cccnc21,-13,1.34
Cn1cc(CNC2(C(N)=O)CCCCC2)cn1,14,-2.67
COc1cc(Cl)ccc1-c1nc(-c2ccc3c(c2)ncn3CCC(=O)N2CCCCC2)no1,-18,2.29
CCc1cnccc1C(=O)N1CC(=O)Nc2cccc3cccc1c23,1,-0.16
C[C@@H](C(=O)Nc1nnc[nH]1)c1ccc2c(c1)[nH]c1ccc(Cl)cc12,-7,0.71
COc1ccc(-c2noc(NCc3ccc(OC)cc3OC)n2)cc1,-10,0.88
Cc1cccc(CN2CCC(CNC(=O)[C@H]3CCCN(c4cc(=O)n(C)c(=O)n4C)C3)CC2)c1,3,-0.55
Cc1cccc(CN2CCC[C@@]3(CCN(C(=O)c4[nH]c(C)cc4C)C3)C2)c1,-9,1.14
Cc1cc(C(=O)NCCN2CC=CCC2)[nH]n1,-3,0.45
O=C(CN1CCOC2CCCCC21)NC1CCCCNC1=O (stereo not drawn),0,0.07
Cc1cc(C)c2nc(N3CCC(C(=O)N4CCN(c5cccc(C)c5C)CC4)CC3)sc2c1,-3,0.32
O=S(=O)(c1ccc(Cl)s1)N1CCC[C@H]1c1ccccc1F,-6,1.09
COc1nn(C)cc1C(=O)NCCc1nc2c(c(C(F)(F)F)n1)CCCC2,-19,2.19
